Measurements taken from ChEMBL document CHEMBL4888484, “Replenishing the malaria drug discovery pipeline: Screening and hit evaluation of the MMV Hit Generation Library 1 (HGL1) against asexual blood stage Plasmodium falciparum ,using a nano luciferase reporter read-out” (2022).
Hit rate of the full screen: of about 150,000 compounds, about 540 (0.36%) showed an effect of 50% or more. Some of the results follow.

What follows are molecules tested on Plasmodium falciparum (assay: Primary screen in NF54 nanoGlo assay, in single point, at 2uM, 72h; a lower Z score goes with more inhibition). Settings: timepoint 72 hour.
Format: functional, Erythrocyte
For `O=C(O)CC(C(=O)NC1CCCCC1)C1CCCO1` (configuration not stated), the “% Inhibition” value was -12% and the Z score was 1.54.
For `NC(=O)[C@H]1CCCN(CCn2cc(-c3ccc(F)c(Cl)c3)nn2)C1`, the “% Inhibition” value was 9% and the Z score was -1.
In the case of `C[C@H]1Cc2ccccc2N1C(=O)c1cocn1`, the “% Inhibition” value is reported as 9% and the Z score is reported as -1.03.
`COCCN(CC(=O)N(Cc1ccccc1)Cc1ccc(C)o1)C(C)=O` was tested, and the “% Inhibition” value was -20% and the Z score was 1.85.
In the case of `C[C@@H]1C[C@H](O)CN(C(=O)c2ccc3nccn3c2)C1`, the “% Inhibition” value is reported as -4% and the Z score is reported as 0.52.
In the case of `Cc1cc(C#N)cc(NC(=O)CN(C)S(C)(=O)=O)n1`, the “% Inhibition” value is reported as -3% and the Z score is reported as 0.51.
For `CC(C)(C)NC(=O)N1CC(Oc2nccs2)C1`, the “% Inhibition” value was -16% and the Z score was 2.07.
In the case of `O=C(NCc1cn(-c2cccnc2)nn1)N1CCOCC1`, the “% Inhibition” value is reported as -2% and the Z score is reported as 0.24.
With `CCc1ccccc1NC(=O)CN1C(=O)[C@H]2CCCC2=Nc2cc(C)c(C)cc21` the “% Inhibition” value was 0% and the Z score was -0.02.
For `CCn1c(C2CCNCC2)nn(CCOc2ccc(C)cc2C)c1=O`, the “% Inhibition” value was -6% and the Z score was 0.57.
With `C[C@H]1COC2(CCC2)CN1C(=O)NCCc1ccoc1` the “% Inhibition” value was 0% and the Z score was 0.01.
In the case of `C[C@H](CN)NCc1ccc(F)cc1Br`, the “% Inhibition” value is reported as -9% and the Z score is reported as 1.23.
`CCNC(=O)NC(=O)[C@H](C)N1CCC(Nc2cccc(C)n2)CC1` was tested, and the “% Inhibition” value was -6% and the Z score was 1.22.
With `CCOC(=O)c1nnc(C(=O)OCC)[nH]1` the “% Inhibition” value was -32% and the Z score was 3.78.
With `C=CCC(CC)NC(=O)NC(CC)C1CCCO1` (configuration not stated) the “% Inhibition” value was 10% and the Z score was -1.85.
In the case of `O=S(=O)(NCC1(C2CC2)CCC1)c1cnn(CC(F)(F)F)c1`, the “% Inhibition” value is reported as 2% and the Z score is reported as -0.25.
`O=C(Nc1ccccc1)OC1C2CCCC1C(N1CCCCC1)CC2` (configuration not stated) was tested, and the “% Inhibition” value was -10% and the Z score was 0.87.
`Cc1ccccc1CN1CCCN(C(=O)c2ccncc2Cl)CC1` was tested, and the “% Inhibition” value was -12% and the Z score was 1.07.
For `CCOC(=O)C[C@H]1COCCN1C(=O)c1coc(CN2CCc3ccccc3C2)n1`, the “% Inhibition” value was -11% and the Z score was 1.68.
`CCn1nncc1C(=O)N[C@H](C)C1CCCC1` was tested, and the “% Inhibition” value was 1% and the Z score was -0.14.
With `CC1(C)NC(=O)N(Cc2noc(CCC(=O)NC3CCCC3)n2)C1=O` the “% Inhibition” value was -12% and the Z score was 1.58.
In the case of `CCC(CC)C(=O)c1c[nH]c(C(N)=O)c1`, the “% Inhibition” value is reported as 34% and the Z score is reported as -4.39.
`OCCCN(Cc1cccnc1)Cc1cn2cc(Cl)ccc2n1` was tested, and the “% Inhibition” value was -8% and the Z score was 0.85.
`COc1ccc(-c2noc(N(C)CC(=O)Nc3ccc(OC)c(OC)c3)n2)cc1` was tested, and the “% Inhibition” value was -3% and the Z score was 0.56.
In the case of `COCC1(NCC(=O)NCc2ccc(C)s2)CCOCC1`, the “% Inhibition” value is reported as -2% and the Z score is reported as 0.22.
In the case of `CC(C)c1c(C(=O)N2CC[C@H](N(C)C)C2)cnn1-c1nccc(-c2ccccc2F)n1`, the “% Inhibition” value is reported as -3% and the Z score is reported as 0.41.
In the case of `CC(C)N(C(=O)c1coc(CC2CC2)n1)C1CCCCC1`, the “% Inhibition” value is reported as -5% and the Z score is reported as 0.54.
With `Cc1nc(C)c(C(=O)N2CCN(Cc3ccccc3)[C@@H]3CS(=O)(=O)C[C@@H]32)o1` the “% Inhibition” value was -15% and the Z score was 1.92.
In the case of `CCCC[C@H](CC)C(=O)NCc1nc(C)no1`, the “% Inhibition” value is reported as -4% and the Z score is reported as 0.57.
With `Cc1cccc(C(O)CN(Cc2ccccc2)C(=O)C2CCCN(C(=O)C(C)C)C2)c1` (configuration not stated) the “% Inhibition” value was -13% and the Z score was 2.06.
In the case of `FC(F)(F)Oc1cccc(N2CC[C@H](NCc3csnn3)C2)c1`, the “% Inhibition” value is reported as -6% and the Z score is reported as 0.57.
With `Cc1cnc([C@@H](C)CNC(=O)NCCc2cn3c(n2)CCCC3)s1` the “% Inhibition” value was -2% and the Z score was 0.22.
For `CCOc1ccc(/N=C(\NCc2c(C)nn(CC)c2C)NC(=O)c2ccc(OC)c(OC)c2)cc1`, the “% Inhibition” value was 3% and the Z score was -0.47.
With `COc1cc(NC(=O)c2cc(C3CC3)on2)ncn1` the “% Inhibition” value was -8% and the Z score was 1.52.
For `Cc1cc(C(=O)N[C@@H](C)c2csnn2)on1`, the “% Inhibition” value was -3% and the Z score was 0.41.
In the case of `O=S(=O)(Cc1ccccc1)N(CCO)CCO`, the “% Inhibition” value is reported as -8% and the Z score is reported as 0.79.
For `CN(C)c1noc(CCC(=O)N[C@H](c2ccccc2)C(F)F)n1`, the “% Inhibition” value was -8% and the Z score was 1.06.
With `CCCCC1(NC(=O)c2nnc(C)s2)CC1` the “% Inhibition” value was -12% and the Z score was 1.95.
In the case of `C[C@](O)(CNS(=O)(=O)c1ccc(Cl)s1)C1CC1`, the “% Inhibition” value is reported as -9% and the Z score is reported as 1.53.
In the case of `OCc1cccc(-c2ccc3c(c2)OC[C@@H](N2CCCC2)[C@@H]3O)c1`, the “% Inhibition” value is reported as 6% and the Z score is reported as -1.12.
With `COc1cc2cc(C(=O)Nc3cccc(Cl)c3)cc(-c3ccc(C)cc3)c2cc1OC` the “% Inhibition” value was -12% and the Z score was 1.58.
`COC(=O)c1cn(CCOc2ccc(C#N)cc2)c(C)n1` was tested, and the “% Inhibition” value was -11% and the Z score was 2.14.
With `N#Cc1ccc(NCCN2CCOCC2)cc1` the “% Inhibition” value was -6% and the Z score was 0.82.
For `O=C(N1CCC(n2cc(Cl)cn2)CC1)C1(O)CCCCC1`, the “% Inhibition” value was -1% and the Z score was 0.07.
For `CN1CCC(C(=O)NCC2(c3cccc(F)c3F)CCCC2)CC1`, the “% Inhibition” value was -6% and the Z score was 1.17.
In the case of `C[C@H](NC(=O)CCn1c(=O)cc(C(F)F)c2cn(C3CCCC3)nc21)c1ccn(C)n1`, the “% Inhibition” value is reported as 26% and the Z score is reported as -2.91.
In the case of `O=S(=O)(Nc1ccnn1[C@H]1CCOC1)c1cnn(C2CCC2)c1`, the “% Inhibition” value is reported as 12% and the Z score is reported as -1.56.
`Cc1ccc(C)c(CN2CCN(Cc3[nH]cnc3C)[C@@H]3CS(=O)(=O)C[C@@H]32)c1` was tested, and the “% Inhibition” value was -13% and the Z score was 1.5.
In the case of `CC1(C)C[C@@H]1NC(=O)c1ccc(S(C)(=O)=O)cc1`, the “% Inhibition” value is reported as -1% and the Z score is reported as 0.13.
`COc1cc(C)ccc1Oc1ccc(NCC2(C)CCOCC2)cn1` was tested, and the “% Inhibition” value was 9% and the Z score was -1.17.
`COc1ccc(CN2CCC([C@]3(Cc4cccc(OC)c4)NC(=O)N(C)C3=O)CC2)cc1` was tested, and the “% Inhibition” value was 0% and the Z score was 0.02.
For `O=C(O)COc1ccccc1CN1C[C@@H]2CC[C@H]1CN(C(=O)C1CCC1)C2`, the “% Inhibition” value was -9% and the Z score was 1.16.
With `Cn1c(C2CCC(CNC(=O)c3ccno3)CC2)nc2ccccc21` (configuration not stated) the “% Inhibition” value was -5% and the Z score was 0.76.
`CC(C)Oc1ccc(S(=O)(=O)NC2(c3noc(C4CC4)n3)CCCC2)cc1` was tested, and the “% Inhibition” value was -4% and the Z score was 0.45.
In the case of `CC1(C)Oc2ccsc2[C@@H](Nc2ccc3nncn3n2)[C@@H]1O`, the “% Inhibition” value is reported as -8% and the Z score is reported as 0.71.
For `CCN(CC(=O)NC)c1ccccc1C`, the “% Inhibition” value was -8% and the Z score was 1.08.
